The supplement of paper PMC8728848
The list shows a part of the results.

Columns and labels:
Test in all cases: glycan array binding signal (z-score within array); higher = stronger binding
Details in all cases: glycan notation: IUPAC condensed, linker removed
[1] = target: Neu5Ac(a2-3)Gal(b1-4)GlcNAc(b1-2)[Neu5Ac(a2-3)Gal(b1-4)GlcNAc(b1-4)]Man(a1-3)[GlcNAc(b1-4)][Neu5Ac(a2-3)Gal(b1-4)GlcNAc(b1-2)[Neu5Ac(a2-3)Gal(b1-4)GlcNAc(b1-6)]Man(a1-6)]Man(b1-4)GlcNAc(b1-4)GlcNAc
Method in brief: (§1)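 The binding signal is a Z-score computed within each array. Data were drawn from 3228 arrays in the Consortium for Functional Glycomics database, restricted to those with a known protein sequence. Scores were averaged over arrays of the same protein sequence at different concentrations or buffers, and over linkers, and negative values can be taken as non-binding.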

[2] = target: Neu5Ac(a2-3)Gal(b1-4)GlcNAc(b1-2)[Neu5Ac(a2-3)Gal(b1-4)GlcNAc(b1-4)]Man(a1-3)[GlcNAc(b1-4)][Neu5Ac(a2-3)Gal(b1-4)GlcNAc(b1-4)Man(a1-6)]Man(b1-4)GlcNAc(b1-4)GlcNAc
Method in brief: as §1

[3] = target: Neu5Ac(a2-3)Gal(b1-4)GlcNAc(b1-2)[Neu5Ac(a2-3)Gal(b1-4)GlcNAc(b1-6)]Man(a1-6)[Neu5Ac(a2-3)Gal(b1-4)GlcNAc(b1-2)Man(a1-3)][GlcNAc(b1-4)]Man(b1-4)GlcNAc(b1-4)GlcNAc
Method in brief: as §1

[4] = target: Neu5Ac(a2-3)Gal(b1-4)GlcNAc(b1-3)Gal
Method in brief: as §1

[5] = target: Neu5Ac(a2-3)Gal(b1-4)GlcNAc(b1-3)Gal(b1-3)GlcNAc
Method in brief: as §1

[6] = target: Neu5Ac(a2-3)Gal(b1-4)GlcNAc(b1-3)Gal(b1-4)GlcNAc
Method in brief: as §1

[7] = target: Neu5Ac(a2-3)Gal(b1-4)GlcNAc(b1-3)Gal(b1-4)GlcNAc(b1-2)Man(a1-3)[Neu5Ac(a2-3)Gal(b1-4)GlcNAc(b1-3)Gal(b1-4)GlcNAc(b1-2)Man(a1-6)]Man(b1-4)GlcNAc(b1-4)GlcNAc
Method in brief: as §1

[8] = target: Neu5Ac(a2-3)Gal(b1-4)GlcNAc(b1-3)Gal(b1-4)GlcNAc(b1-3)Gal(b1-4)GlcNAc
Method in brief: as §1

[9] = target: Neu5Ac(a2-3)Gal(b1-4)GlcNAc(b1-3)Gal(b1-4)GlcNAc(b1-3)Gal(b1-4)GlcNAc(b1-2)Man(a1-3)[Neu5Ac(a2-3)Gal(b1-4)GlcNAc(b1-3)Gal(b1-4)GlcNAc(b1-3)Gal(b1-4)GlcNAc(b1-2)Man(a1-6)]GalNAc
Method in brief: as §1

[10] = target: Neu5Ac(a2-3)Gal(b1-4)GlcNAc(b1-3)Gal(b1-4)GlcNAc(b1-3)GalNAc
Method in brief: as §1

[11] = target: Neu5Ac(a2-3)Gal(b1-4)GlcNAc(b1-3)Gal(b1-4)GlcNAc(b1-3)[Neu5Ac(a2-3)Gal(b1-4)GlcNAc(b1-3)Gal(b1-4)GlcNAc(b1-6)]GalNAc
Method in brief: as §1

[12] = target: Neu5Ac(a2-3)Gal(b1-4)GlcNAc(b1-3)Gal(b1-4)GlcNAc(b1-6)[Gal(b1-3)]GalNAc
Method in brief: as §1

[13] = target: Neu5Ac(a2-3)Gal(b1-4)GlcNAc(b1-3)Gal(b1-4)[Fuc(a1-3)]GlcNAc
Method in brief: as §1

[14] = target: Neu5Ac(a2-3)Gal(b1-4)GlcNAc(b1-3)GalNAc
Method in brief: as §1

[15] = target: Neu5Ac(a2-3)Gal(b1-4)GlcNAc(b1-3)[Neu5Ac(a2-3)Gal(b1-4)GlcNAc(b1-6)]GalNAc
Method in brief: as §1

[16] = target: Neu5Ac(a2-3)Gal(b1-4)GlcNAc(b1-6)GalNAc
Method in brief: as §1

[17] = target: Neu5Ac(a2-3)Gal(b1-4)GlcNAc(b1-6)[Gal(b1-3)]GalNAc
Method in brief: as §1

[18] = target: Neu5Ac(a2-3)Gal(b1-4)GlcNAc(b1-6)[Neu5Ac(a2-3)Gal(b1-3)]GalNAc
Method in brief: as §1

[19] = target: Neu5Ac(a2-3)Gal(b1-4)GlcNAc6S
Method in brief: as §1

[20] = target: Neu5Ac(a2-3)Gal(b1-4)[Fuc(a1-3)]GlcNAc
Method in brief: as §1

[21] = target: Neu5Ac(a2-3)Gal(b1-4)[Fuc(a1-3)]GlcNAc(b1-2)Man
Method in brief: as §1

[22] = target: Neu5Ac(a2-3)Gal(b1-4)[Fuc(a1-3)]GlcNAc(b1-3)Gal
Method in brief: as §1

[23] = target: Neu5Ac(a2-3)Gal(b1-4)[Fuc(a1-3)]GlcNAc(b1-3)Gal(b1-4)GlcNAc
Method in brief: as §1

[24] = target: Neu5Ac(a2-3)Gal(b1-4)[Fuc(a1-3)]GlcNAc(b1-3)Gal(b1-4)[Fuc(a1-3)]GlcNAc(b1-3)Gal(b1-4)[Fuc(a1-3)]GlcNAc
Method in brief: as §1

[25] = target: Neu5Ac(a2-3)Gal(b1-4)[Fuc(a1-3)]GlcNAc(b1-3)GalNAc
Method in brief: as §1

[26] = target: Neu5Ac(a2-3)Gal(b1-4)[Fuc(a1-3)]GlcNAc(b1-6)[Gal(b1-3)]GalNAc
Method in brief: as §1

[27] = target: Neu5Ac(a2-3)Gal(b1-4)[Fuc(a1-3)]GlcNAc(b1-6)[Neu5Ac(a2-3)Gal(b1-3)]GalNAc
Method in brief: as §1

[28] = target: Neu5Ac(a2-3)Gal(b1-4)[Fuc(a1-3)]GlcNAc6S
Method in brief: as §1

[29] = target: Neu5Ac(a2-3)Gal6S(b1-4)GlcNAc
Method in brief: as §1

[30] = target: Neu5Ac(a2-3)Gal6S(b1-4)[Fuc(a1-3)]GlcNAc
Method in brief: as §1

Neu5Ac(a2-3)GalNAc = target: Neu5Ac(a2-3)GalNAc
Method in brief: as §1

[31] = target: Neu5Ac(a2-3)GalNAc(b1-4)GlcNAc
Method in brief: as §1

[32] = target: Neu5Ac(a2-3)[GalNAc(b1-4)]Gal(b1-4)Glc
Method in brief: as §1

[33] = target: Neu5Ac(a2-3)[GalNAc(b1-4)]Gal(b1-4)GlcNAc
Method in brief: as §1

[34] = target: Neu5Ac(a2-3)[GalNAc(b1-4)]Gal(b1-4)GlcNAc(b1-3)GalNAc
Method in brief: as §1

[35] = target: Neu5Ac(a2-3)[Neu5Ac(a2-6)]GalNAc
Method in brief: as §1

Neu5Ac(a2-6)Gal = target: Neu5Ac(a2-6)Gal
Method in brief: as §1

[36] = target: Neu5Ac(a2-6)Gal(b1-3)GlcNAc(b1-3)[Gal(b1-4)GlcNAc(b1-6)]Gal(b1-4)Glc
Method in brief: as §1

Neu5Ac(a2-6)Gal(b1-4)Glc = target: Neu5Ac(a2-6)Gal(b1-4)Glc
Method in brief: as §1

[37] = target: Neu5Ac(a2-6)Gal(b1-4)GlcNAc
Method in brief: as §1

[38] = target: Neu5Ac(a2-6)Gal(b1-4)GlcNAc(b1-2)Man
Method in brief: as §1

[39] = target: Neu5Ac(a2-6)Gal(b1-4)GlcNAc(b1-2)Man(a1-3)Man(b1-4)GlcNAc(b1-4)GlcNAc
Method in brief: as §1

[40] = target: Neu5Ac(a2-6)Gal(b1-4)GlcNAc(b1-2)Man(a1-3)[Gal(b1-4)GlcNAc(b1-2)Man(a1-6)]Man(b1-4)GlcNAc(b1-4)GlcNAc
Method in brief: as §1

[41] = target: Neu5Ac(a2-6)Gal(b1-4)GlcNAc(b1-2)Man(a1-3)[GlcNAc(b1-4)][Neu5Ac(a2-6)Gal(b1-4)GlcNAc(b1-2)Man(a1-6)]Man(b1-4)GlcNAc(b1-4)GlcNAc
Method in brief: as §1

[42] = target: Neu5Ac(a2-6)Gal(b1-4)GlcNAc(b1-2)Man(a1-3)[Man(a1-6)]Man(b1-4)GlcNAc(b1-4)GlcNAc
Method in brief: as §1

B1: RBMC2 (Vibrio cholerae) (protein)
chain: KISVRSGFAIDAIGASASTLVGGTGGNLNAAVNVKDIKAIDLTWGKYYWGGYHLLALDFRMSNGSVISMGSKNYAYSKQTERFTVPAGSRIKGIKAWTAGWLLDGVQFELA
glycan array binding signal (z-score) [1]: -0.232 | glycan array binding signal (z-score) [2]: -0.369 | glycan array binding signal (z-score) [3]: -0.398 | glycan array binding signal (z-score) [4]: -0.327 | glycan array binding signal (z-score) [5]: -0.419 | glycan array binding signal (z-score) [6]: -0.404 | glycan array binding signal (z-score) [7]: 1.18 | glycan array binding signal (z-score) [8]: -0.27 | glycan array binding signal (z-score) [9]: 0.456 | glycan array binding signal (z-score) [10]: -0.379 | glycan array binding signal (z-score) [11]: -0.254 | glycan array binding signal (z-score) [12]: -0.322 | glycan array binding signal (z-score) [13]: -0.385 | glycan array binding signal (z-score) [14]: -0.302 | glycan array binding signal (z-score) [15]: -0.26 | glycan array binding signal (z-score) [16]: -0.363 | glycan array binding signal (z-score) [17]: -0.171 | glycan array binding signal (z-score) [18]: -0.331 | glycan array binding signal (z-score) [19]: -0.318 | glycan array binding signal (z-score) [20]: -0.409 | glycan array binding signal (z-score) [21]: -0.221 | glycan array binding signal (z-score) [22]: -0.435 | glycan array binding signal (z-score) [23]: -0.184 | glycan array binding signal (z-score) [24]: -0.352 | glycan array binding signal (z-score) [25]: -0.389 | glycan array binding signal (z-score) [26]: -0.238 | glycan array binding signal (z-score) [27]: -0.025 | glycan array binding signal (z-score) [28]: -0.203 | glycan array binding signal (z-score) [29]: -0.251 | glycan array binding signal (z-score) [30]: -0.474 | glycan array binding signal (z-score) (Neu5Ac(a2-3)GalNAc): 0.039 | glycan array binding signal (z-score) [31]: -0.3 | glycan array binding signal (z-score) [32]: -0.352 | glycan array binding signal (z-score) [33]: -0.404 | glycan array binding signal (z-score) [34]: -0.2 | glycan array binding signal (z-score) [35]: -0.245 | glycan array binding signal (z-score) (Neu5Ac(a2-6)Gal): -0.4 | glycan array binding signal (z-score) [36]: -0.431 | glycan array binding signal (z-score) (Neu5Ac(a2-6)Gal(b1-4)Glc): -0.368 | glycan array binding signal (z-score) [37]: -0.313 | glycan array binding signal (z-score) [38]: -0.356 | glycan array binding signal (z-score) [39]: -0.132 | glycan array binding signal (z-score) [40]: -0.285 | glycan array binding signal (z-score) [41]: -0.252 | glycan array binding signal (z-score) [42]: 12.3
